# PubChem BioAssay AID463173 (ICCB-Longwood Screening Facility, Harvard Medical School, 2010)
# About 1,700 (3.3%) of roughly 52,000 compounds were called active. Cut-off read from the data, not from the text of the source: active = survival mostly below about 52% (no sharp cut-off); inactive = mostly above about 56%. The list shows a part of the results.
# System: Wild type
# Experiment: S. aureus survival, RN4220 and DeltatarO strains – OD600, teichoic acid synthesis inhibitors, primary screen (AID 463173)
# Conditions: S. aureus RN4220 wild type/DeltatarO growth, OD600, 18 h, stronger effect = lower value, screened at 18.75 µg/mL (by protocol)
row,Compound,survival
1,Cc1ccc(CSc2nc3cc(C(=O)NC4CCCC4)ccc3c(=O)n2Cc2ccccc2)cc1,inactive: 65%
2,O=C(NCc1cccc(Cl)c1)c1ccc2c(Cl)c3c(nc2c1)CCCC3,inactive: 66%
3,COc1ccc(CCN2C(=O)N(c3ccc(C)cc3)C(=O)C2CC(=O)Nc2ccc(OC)cc2)cc1 (centres undefined),inactive: 76%
4,COc1cc(NC(=O)c2cc(S(=O)(=O)N3CCC(C)CC3)cn2C)cc(OC)c1OC,inactive: 74%
5,CCOC(=O)C1CCCN(C(=O)Cn2ncc3c4ccccc4n(C)c3c2=O)C1 (centres undefined),inactive: 118%
6,O=C(CSc1ncc(CO)n1Cc1ccc(F)cc1)NCc1ccco1,inactive: 134%
7,COc1cc(O)ccc1-c1nc2cc(C)ccn2c1Nc1ccccc1C,inactive: 73%
8,CC(C)(O)C1Cc2cc(/C=C/C(=O)O)c(O)cc2O1 (centres undefined),inactive: 97%
9,O=C(Nc1cccc(F)c1)C1CCN(S(=O)(=O)c2ccc3[nH]c4c(c3c2)CCCCC4)CC1,inactive: 68%
10,C=CCC1N(c2ccccc2)C(=O)C2C(C(=O)O)C3C=CC21O3 (centres undefined),inactive: 112%
11,COc1ccc(NC(=O)CSc2nc3nc(C)cc(C)n3n2)cc1OC,inactive: 72%
12,Cc1cccc2c(=O)cc(CSc3ccccc3NC(=O)c3cccc(Br)c3)[nH]c12,inactive: 91%
13,CCc1ccc(S(=O)(=O)Nc2cccc(-c3ccc(OC)nn3)c2)s1,inactive: 71%
14,Cc1ccc(S(=O)(=O)NC(CO)C(=O)O)cc1 (centres undefined),inactive: 94%
15,CCOc1ccccc1NC(=O)NCc1noc2ccc(C)cc12,inactive: 76%
16,COc1cccc(NC(=O)c2sc3nc(C)c(C(=O)Nc4ccc(C)cc4C)c(-c4ccc(C)o4)c3c2N)c1,inactive: 66%
17,CCC1CCCCN1CCCNC(=O)c1c(C)oc2ncn(CC(C)C)c(=O)c12 (centres undefined),inactive: 67%
18,O=C(O)c1ccc(NS(=O)(=O)c2ccc(N3C(=O)CCC3=O)cc2)cc1,inactive: 101%
19,O=c1n(Cc2ccc(Cl)cc2)nc2n1-c1ccccc1OC2,inactive: 73%
20,Cc1ccc(N2CC(C(=O)NCc3nnnn3-c3ccc(C)c(C)c3)CC2=O)cc1C (centres undefined),inactive: 59%
21,COc1cc(C(=O)NCC(c2ccc3c(c2)OCO3)N2CCN(C)CC2)cc(OC)c1OC (centres undefined),inactive: 128%
22,COc1cccc2c1cc1c(=O)n(CC(=O)NCc3ccc(N(C)C)cc3)nc(C)n12,inactive: 83%
23,CC(C)c1ccc2oc(-c3cc(NC(=O)c4cccnc4)ccc3Cl)nc2c1,active: 1%

row,Compound,survival
1,O=C(CSc1nc2ccccc2nc1Cc1ccc(Cl)cc1)N1CCN(c2ccccc2F)CC1,inactive: 83%
2,Cc1ccccc1OCC(=O)Nc1ccc2nc(SCCOc3ccccc3)sc2c1,inactive: 115%
3,CC(C)c1c(O)nc(SCCC(=O)O)[nH]c1=O,inactive: 96%
4,CN(C(=O)CSc1nc2ccc(NC(=O)CCc3ccccc3)cc2s1)c1ccccc1,inactive: 86%
5,CN(C)S(=O)(=O)c1ccc(NC(=O)Cn2c(-c3ccccc3)noc2=O)cc1,inactive: 115%
6,CCOc1ccc(-c2cc(C(=O)N3CCN(c4cccc(C)c4)C(C)C3)c3ccccc3n2)cc1 (centres undefined),inactive: 113%
7,CCc1ccccc1NC(=O)C(=O)NCC(c1cccnc1)N1CCc2ccccc21 (centres undefined),inactive: 79%
8,Cc1ccc(-c2nnc(Nc3ccc(S(N)(=O)=O)cc3)c3ccccc23)cc1S(=O)(=O)N1CCOCC1,inactive: 69%
9,Cc1ccc(C)c(Cn2c(SCC(=O)N(C)Cc3ccccc3)nc3ccccc32)c1,inactive: 71%
10,Cc1ccc(C)c(N2CCN(C(=O)CCCCCn3c(=O)[nH]c4ccccc4c3=O)CC2)c1,inactive: 71%
11,COc1ccc2c(c1)Cc1sc(NC(=O)c3cccc(F)c3)nc1-2,inactive: 69%
12,CC(NC(=O)c1cccc(NC(=O)c2nsc3ccccc23)c1)c1ccccc1 (centres undefined),inactive: 111%
13,COc1ccc(C(=O)Nc2ccc3oc(-c4ccc(OC)cc4)nc3c2)cc1,inactive: 80%
14,CCOC(=O)c1ccc(NC(=O)C2CC(=O)N(c3ccc(C(C)C)cc3)C2)cc1 (centres undefined),inactive: 80%
15,CCCC(=O)Nc1cc(-c2nc3cccnc3s2)ccc1C,inactive: 106%
16,Cc1ccc(NC(=O)NCC2CCN(Cc3cccc(Cl)c3)CC2)cc1Cl,active: -6%
17,COCc1cc(C)n(CC(N)=O)c(=O)c1C#N,inactive: 106%
18,CCc1cccc(NC(c2nnc(-c3ccccc3)o2)c2ccc(F)cc2Cl)c1 (centres undefined),inactive: 70%
19,COc1cccc(-n2c(-c3ccco3)nc3c(cnn3-c3ccc(C)cc3)c2=O)c1,inactive: 56%
20,CCN1c2ccccc2-c2nc(SCC(=O)Nc3c(C)cc(C)cc3C)ncc2S1(=O)=O,inactive: 75%
21,CCOc1ccc(NS(=O)(=O)c2ccc3[nH]cc(C(=O)NC4CCCC4)c(=O)c3c2)cc1,inactive: 55%
22,CCOc1ccc(C(=O)c2cn(Cc3ccc(OC)cc3)c3cc(OC)c(OC)cc3c2=O)cc1,inactive: 134%
23,Cc1ccc(C(=O)CSc2nnc(-c3ccccc3)n2-c2ccccc2)cc1,inactive: 79%

row,Compound,survival
1,CCn1c(C(C)C)n[nH]c1=S,inactive: 102%
2,Cc1cccc(NC(=O)CCNS(=O)(=O)c2cccc3nonc23)c1,inactive: 62%
3,CC(=O)Nc1ccc(S(=O)(=O)NC2(C(F)(F)F)C(=O)Nc3c2c(=O)[nH]c(=O)n3-c2ccc(C)c(C)c2)cc1 (centres undefined),inactive: 71%
4,CC1=C(C(=O)NCc2ccc(C)cc2)C2(CCCCC2)OC1=O,inactive: 65%
5,Cc1ccc2cccc(NC(=O)C(C)Oc3ccc(C)c(C)c3)c2n1 (centres undefined),inactive: 83%
6,CCOc1ccc(NC(=O)CSc2ncc3c(n2)-c2cc(Cl)ccc2N(C)S3(=O)=O)cc1,active: -3%
7,Cc1noc(Cn2c(=O)c3ccccc3n(CC(=O)Nc3ccc(Cl)cc3)c2=O)n1,inactive: 80%
8,O=C(Nc1cc(Cl)ccc1Cl)C1(c2cccs2)CCOCC1,inactive: 105%
9,O=C(CCS(=O)(=O)c1nc(-c2ccc3c(c2)OCO3)cc(C(F)(F)F)n1)Nc1ccc(F)c(Cl)c1,inactive: 32%
10,CN(C)c1ccc(C(CNS(=O)(=O)c2ccc(F)cc2)N2CCCC2)cc1 (centres undefined),inactive: 124%
11,COc1ccc(Nc2ncc(C(=O)Nc3cc(Cl)c(OC)cc3OC)c3ccccc23)cc1,inactive: 99%
12,Cc1ccc(C)c(C2C(C#N)=C(N)OC3=C2C(=O)CCC3)c1 (centres undefined),inactive: 107%
13,O=c1c2cc3c(cc2n(Cc2cccc(Cl)c2)c(=O)n1Cc1nc(-c2ccccc2)no1)OCO3,inactive: 55%
14,CCOc1ccccc1C(=O)Nc1ccccc1,inactive: 106%
15,CC(=O)N1CCCc2cc(S(=O)(=O)N3CCCC(C(=O)Nc4cccc(F)c4)C3)ccc21 (centres undefined),inactive: 85%
16,COc1ccc(NC(=O)CCNS(=O)(=O)c2cccc3nonc23)c(OC)c1,inactive: 67%
17,COc1ccc(N2CCN(C(=O)c3ccc(Nc4nc5ccccc5n5nnnc45)cc3)CC2)cc1,inactive: 95%
18,CCN1CCCC1CNC(=O)c1c(O)c2c([nH]c1=O)CCCC2 (centres undefined),inactive: 111%
19,CN1C(=O)C(O)N(c2ccc(Cl)c(Cl)c2)C1=O (centres undefined),inactive: 100%
20,O=C(Nc1ncc(Cc2ccc(Cl)cc2)s1)c1ccc2c(c1)CC(c1ccccc1)OC2=O (centres undefined),inactive: 87%
21,CCOC(=O)CNC(=O)c1cc2c(=O)n3cccc(C)c3nc2s1,inactive: 156%
22,Cc1ccc(NC(=O)CCNS(=O)(=O)c2ccc3c(c2)CCN3C(=O)C2CC2)c(Cl)c1,inactive: 72%
23,CCCn1c2ccccc2c2cnn(CC(=O)NCCc3ccc(OCC)c(OCC)c3)c(=O)c21,inactive: 76%

row,Compound,survival
1,O=C1CN=C(Nc2cccc(C(F)(F)F)c2)N1C1CCCC1,inactive: 125%
2,COc1cccc(CNC(=O)CSc2nc3ccccc3nc2Cc2ccc(C)cc2)c1OC,inactive: 81%
3,CC1(C)Cc2ccccc2-c2nnc(-c3ccccc3)n21,inactive: 95%
4,COc1cccc(C2CC(=O)Nc3c2c(=O)nc2c(C)cccn32)c1 (centres undefined),inactive: 70%
5,CCOc1ccccc1NC(=O)CSc1ncc(S(=O)(=O)c2ccc(C(C)(C)C)cc2)c(=O)[nH]1,inactive: 83%
6,O=C(CN(C(=O)Cn1nnc(-c2ccc(F)cc2)n1)c1ccccc1C(F)(F)F)NCc1ccco1,inactive: 116%
7,CCCCNC(=O)CCn1c(=O)c2cccn2c2ccc(F)cc21,inactive: 77%
8,CC1CCN(c2nn3c(=O)c(C(=O)NCc4ccc(Cl)cc4)cnc3s2)CC1,inactive: 72%
9,Cc1noc(Cn2c(=O)c3ccccc3n(CC(=O)Nc3cccc(Cl)c3C)c2=O)n1,inactive: 70%
10,CC(=O)N1CCCc2cc(S(=O)(=O)N(C)CC(=O)Nc3ccc(C)cc3C)ccc21,inactive: 72%
11,CCOc1ccccc1NC(=O)C1CCN(c2ncccn2)CC1,inactive: 111%
12,N#Cc1nc(/C=C/c2ccc(F)cc2)oc1N1CCN(c2ccccc2)CC1,inactive: 80%
13,CC(C)c1ccc(OCC(=O)Nc2c(Cl)ccc3nsnc23)cc1,inactive: 48%
14,Cc1ccccc1-n1cc(-c2ccccc2)nc1SCC(=O)Nc1ccc(F)cc1,inactive: 69%
15,CC(C)C(NC(=O)OCc1ccccc1)C(=O)N1CCOCCOCCOCC1 (centres undefined),inactive: 101%
16,COc1ccc(-n2c(=O)c3c4c(sc3n(Cc3cc(C)ccc3C)c2=O)CN(C(C)=O)CC4)c(OC)c1,inactive: 129%
17,O=C(Nc1cccc(NC(=O)c2ccc(Br)o2)c1)c1ccccc1,inactive: 78%
18,COc1cccc(C2c3c(oc4ccc(C)cc4c3=O)C(=O)N2CCCN2CCOCC2)c1OC (centres undefined),inactive: 131%
19,Cc1cccc(-c2noc(-c3cccnc3NCc3ccco3)n2)c1,inactive: 74%
20,Cc1ccc(CNc2nc3ccccc3n3c(C)nnc23)cc1,inactive: 87%
